According to a compilation of properties of binary mixtures (doi:10.1021/ie3024752):
Some of these densities may be calculated back from excess volumes.

Assay: xn = mol fraction of the nth substance listed
Settings: 100 kPa

O=C[C@H](O)[C@@H](O)[C@H](O)[C@H](O)CO + CCCC[n+]1ccn(C)c1.N#C[N-]C#N
mass density (298 K, x1 = 0.0313): 1069.4 kg/m3
mass density (298 K, x1 = 0.0937): 1087.2 kg/m3
mass density (298 K, x1 = 0.1849): 1115.7 kg/m3
mass density (298 K, x1 = 0.2474): 1137.3 kg/m3
mass density (313 K, x1 = 0.0313): 1059.9 kg/m3
mass density (313 K, x1 = 0.0937): 1077.7 kg/m3
mass density (313 K, x1 = 0.1849): 1106.1 kg/m3
mass density (313 K, x1 = 0.228): 1119.4 kg/m3
mass density (313 K, x1 = 0.2474): 1127.8 kg/m3
mass density (328 K, x1 = 0.0313): 1050.5 kg/m3
mass density (328 K, x1 = 0.0937): 1068.4 kg/m3
mass density (328 K, x1 = 0.1849): 1096.6 kg/m3
mass density (328 K, x1 = 0.228): 1109.9 kg/m3
mass density (343 K, x1 = 0.0313): 1041.2 kg/m3
mass density (343 K, x1 = 0.0937): 1059.1 kg/m3
mass density (343 K, x1 = 0.1849): 1087.3 kg/m3
mass density (343 K, x1 = 0.228): 1100.4 kg/m3
mass density (343 K, x1 = 0.2474): 1108.9 kg/m3

CCCC[n+]1ccn(C)c1.N#C[N-]C#N + OC[C@@H](O)[C@@H](O)[C@H](O)[C@@H](O)C=O
mass density (298 K, x2 = 0): 1060.6 kg/m3
mass density (313 K, x2 = 0): 1051.1 kg/m3
mass density (328 K, x2 = 0): 1041.7 kg/m3
mass density (343 K, x2 = 0): 1032.4 kg/m3
